# Reference: PubChem BioAssay AID1347165 (National Center for Advancing Translational Sciences (NCATS), 2019)
# Screen size: about 220,000 compounds; about 5,700 (2.6%) were called active. The inconclusive results got no clear call from the source; some entries with a clear call stand among them for comparison. Calls come from the whole dose curve; as a rule, active = well fitted inhibition curve with a large enough effect; inconclusive = small, poorly fitted or top-dose-only effect; inactive = no such curve, though single readings can be large or run the other way. Where the call is inconclusive, the potency comes from a doubtful curve fit.
# Molecular target: Lysine-specific demethylase 5B (Homo sapiens) (UniProt Q9UGL1)
# Sequence of UniProt Q9UGL1 (Q9UGL1 whole entry, looked up): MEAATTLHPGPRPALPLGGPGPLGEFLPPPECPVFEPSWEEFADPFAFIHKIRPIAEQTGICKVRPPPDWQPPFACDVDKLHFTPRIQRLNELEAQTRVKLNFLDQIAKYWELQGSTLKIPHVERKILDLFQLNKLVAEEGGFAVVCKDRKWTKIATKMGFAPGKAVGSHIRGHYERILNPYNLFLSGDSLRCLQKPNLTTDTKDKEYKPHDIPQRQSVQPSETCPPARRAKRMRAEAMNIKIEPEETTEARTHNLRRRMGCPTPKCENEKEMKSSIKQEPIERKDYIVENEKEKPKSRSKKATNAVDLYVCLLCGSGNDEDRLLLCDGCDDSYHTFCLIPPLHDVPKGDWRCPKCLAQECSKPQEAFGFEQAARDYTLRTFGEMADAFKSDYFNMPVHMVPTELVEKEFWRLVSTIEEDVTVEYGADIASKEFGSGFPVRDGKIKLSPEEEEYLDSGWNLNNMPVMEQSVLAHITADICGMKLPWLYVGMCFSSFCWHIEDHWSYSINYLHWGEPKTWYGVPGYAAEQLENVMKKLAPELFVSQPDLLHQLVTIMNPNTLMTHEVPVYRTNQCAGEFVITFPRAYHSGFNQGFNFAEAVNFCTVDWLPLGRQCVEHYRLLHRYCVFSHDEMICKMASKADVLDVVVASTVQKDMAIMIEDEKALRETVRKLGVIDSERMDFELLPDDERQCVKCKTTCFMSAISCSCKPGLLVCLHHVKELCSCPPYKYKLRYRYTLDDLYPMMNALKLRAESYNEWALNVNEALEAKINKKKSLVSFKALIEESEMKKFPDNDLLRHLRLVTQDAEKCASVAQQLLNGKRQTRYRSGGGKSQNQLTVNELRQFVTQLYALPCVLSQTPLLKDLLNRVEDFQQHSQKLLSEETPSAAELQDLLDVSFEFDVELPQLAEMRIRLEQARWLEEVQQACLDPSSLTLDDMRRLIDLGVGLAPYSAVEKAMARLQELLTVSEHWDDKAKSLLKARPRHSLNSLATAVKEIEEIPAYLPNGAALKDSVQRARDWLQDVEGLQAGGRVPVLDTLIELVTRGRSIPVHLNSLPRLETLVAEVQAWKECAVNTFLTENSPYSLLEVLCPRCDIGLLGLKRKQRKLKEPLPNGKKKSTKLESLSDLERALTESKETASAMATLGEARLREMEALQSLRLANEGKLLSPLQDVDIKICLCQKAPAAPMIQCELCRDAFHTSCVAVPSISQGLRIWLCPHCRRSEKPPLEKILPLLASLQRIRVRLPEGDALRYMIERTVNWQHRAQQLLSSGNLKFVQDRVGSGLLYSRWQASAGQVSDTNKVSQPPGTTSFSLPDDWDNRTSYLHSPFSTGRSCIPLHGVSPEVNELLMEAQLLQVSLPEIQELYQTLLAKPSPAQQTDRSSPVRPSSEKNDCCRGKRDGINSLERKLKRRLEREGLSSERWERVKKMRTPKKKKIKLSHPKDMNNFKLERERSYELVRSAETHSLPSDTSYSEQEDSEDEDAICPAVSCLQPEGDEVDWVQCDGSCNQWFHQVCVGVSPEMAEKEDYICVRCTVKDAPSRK
# Experiment: Primary screen for KDM5B Histone Demethylases FDH-coupled qHTS; note: nearly all actives have a fitted effect of over 70% in size; for activity change, negative = inhibition: 0% is about no effect
# Conditions: FDH-coupled NADH fluorescence (FDH is formaldehyde dehydrogenase); activity change, negative = inhibition: at 57.7 µM (top of the series) unless noted
# Method in brief: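 Coupled FDH/NAD⁺ fluorescence readout. KDM5BΔAP 200 nM final; compound titration, 10 min RT preincubation; substrate mix 12.5 µM H3K4me3, 25 µM 2-OG, 50 µM Fe(II), 100 µM ascorbate, 0.25 mM NAD⁺, 0.25 U/mL FDH; ΔRFU over 30 min.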
# Potency is the fitted concentration of half-maximal effect; tags give direction and shape of the fitted curve.
Structure (SMILES),Potency,"activity change, negative = inhibition"
CC(C)OCCCNC(=O)c1cc(C2CC2)nc2onc(C3CCNC3)c12 (stereo unspecified),"inconclusive: 56.2 µM [inhibitor, partial curve, poor fit]",–
O=C(Nc1nonc1-c1ccc2c(c1)CCCC2)c1cccs1,inactive,–
O=S1(=O)c2c(cccc2N2CCSCC2)Oc2ccccc2CN1Cc1cn(Cc2ccc(F)cc2)nn1,"inconclusive: 31.6 µM [inhibitor, partial curve, poor fit]",–
O=C(N[C@@H]1CN(C(=O)c2cccc3[nH]ccc23)CC[C@@H]1CO)C1CC1,"inconclusive: 25.1 µM [inhibitor, partial curve, poor fit]",–
Cc1cc(=O)oc2cc(O[C@@H]3O[C@H](CO)[C@H](O)[C@H](O)[C@H]3O)ccc12,"inconclusive: 35.5 µM [inhibitor, partial curve, poor fit]",–
Cc1ccnc(NC(=O)c2cc(-c3ccc(C)o3)nc3ccccc23)c1,"inconclusive: 31.6 µM [inhibitor, partial curve, poor fit]",–
Cc1cccc(C)c1NC(=O)c1nc(S(C)(=O)=O)ncc1N(Cc1ccc(C(C)(C)C)cc1)Cc1ccco1,"inconclusive: 28.2 µM [inhibitor, partial curve, poor fit]",–
CCOC(=O)c1ccccc1NC(=O)Cn1nnc2sc3c(c2c1=O)CCCC3,–,inconclusive: -33.4% [inhibitor]
CCOc1ccc(S(=O)(=O)N2CCN(c3ccc(NCc4ccccc4)nn3)CC2)cc1,"inconclusive: 25.1 µM [inhibitor, partial curve, poor fit]",–
O=c1cc(-c2cccnc2)oc2c(-c3ccc(O)c(F)c3)nccc12,inactive,–
Cc1ccc2c(Cl)cc(Cl)c(OCC(=O)N3CCOC(C)C3)c2n1 (stereo unspecified),"inconclusive: 39.8 µM [inhibitor, single point]",–
COc1cc2ccccc2cc1C(=O)NCc1ccncc1,"inconclusive: 35.5 µM [inhibitor, partial curve, poor fit]",–
COc1ccc(CNC(=O)C2CCCN(S(=O)(=O)N(C)c3ccc(F)cc3)C2)cc1OC (stereo unspecified),"inconclusive: 44.7 µM [inhibitor, single point]",–
COc1ccc(-c2c(C)nc3c(-c4ccsc4)cnn3c2N)cc1,"inconclusive: 22.4 µM [inhibitor, partial curve, poor fit]",–
O=C(CC[C@H]1NC(=O)c2ccccc2NC1=O)NCCCc1nnc2ccccn12,inactive,–
COc1cccc2c1OC1(CCN(C(C)=O)CC1)N1N=C(c3ccccc3OC(F)F)CC21 (stereo unspecified),inactive,–
CCN(CC)C(CNC(=O)c1ccc(=O)n(CCOC)n1)c1ccccc1 (stereo unspecified),inactive,–
COc1ccc(-c2nc(Cn3c(-c4cccc(Cl)c4)nc(C)c(CCO)c3=O)c(C)o2)cc1,active: 28.2 µM,–
CCCCNC(=O)c1cn(CC)c2cc(N3CCN(C)CC3)c(F)cc2c1=O,"inconclusive: 28.2 µM [inhibitor, partial curve, poor fit]",–
CCCNC(=O)N(C1CCOCC1)C1CCN(C(=O)Cc2ccccc2F)CC1,inactive,–
CC[C@H]1CN(C(=O)C2CC2)CC[C@H]1CC(=O)O,inactive,–
O=S(=O)(c1ccc(NC(=S)NN=C(C2CC2)C2CC2)cc1)N1CCOCC1,"inconclusive: 22.4 µM [inhibitor, partial curve, poor fit]",–

Structure (SMILES),Potency,"activity change, negative = inhibition"
CSc1ccc(C2CC(=O)N(c3cccc(C(F)(F)F)c3)C3=C2C(=O)OC3)cc1 (stereo unspecified),inactive,–
CN1CC(=O)N(C2CCCNC2)Cc2c(NCCN3CCOCC3)ncnc21 (stereo unspecified),"inconclusive: 50.1 µM [inhibitor, partial curve, poor fit]",–
COC(=O)CNC(=O)c1nc(-c2ccc([S+](C)(=O)[O-])cc2)c2cnccn12,active: 25.1 µM,–
O=C(O)c1cc(NS(=O)(=O)c2cccc3nsnc23)cc(C(=O)O)c1,inactive,–
CNC(=O)C1CCCC1,inactive,–
COc1ccc(CN(Cc2ccco2)C(=O)COc2ccc(Cl)cc2C)cc1,"inconclusive: 15.8 µM [inhibitor, partial curve, poor fit]",–
CCCCCn1c(=O)[nH]c2cc(C(=O)NCCCN3CCCCC3CC)ccc2c1=O (stereo unspecified),"inconclusive: 31.6 µM [inhibitor, partial curve, poor fit]",–
CN(C)c1ccc(C(=S)N2CCN(c3ccc([N+](=O)[O-])cc3)CC2)cc1,"inconclusive: 39.8 µM [inhibitor, partial curve, poor fit]",–
Cc1ccc2c(c1)c(C(=O)N[C@H](c1cnn(C)c1)C1CC(O)C1)nn2C (stereo partly specified),active: 28.2 µM,–
CCOC(=O)/C(C#N)=C\c1ccc(-c2cccc(C(F)(F)F)c2)o1,inactive,–
CN1CC(=O)N(CCCC(=O)Nc2cccc3cccnc23)C1=O,inactive,–
CSc1ccc(Cl)c(C(=O)Oc2ccccc2Cc2ccccc2)c1,inactive,–
C(=N\Nc1nc2ccccc2s1)/c1ccccn1,"inconclusive: 25.1 µM [inhibitor, single point]",–
COc1cccc(CNS(=O)(=O)c2ccc3[nH]c4c(c3c2)CCCCC4)c1,"inconclusive: 17.8 µM [inhibitor, single point]",–
O[C@@H]1C[C@@H](c2nc(Cc3ccc(F)cc3Cl)no2)N(Cc2cc3ccccc3o2)C1,"inconclusive: 28.2 µM [inhibitor, partial curve]",–
Cc1ccc(C2=NN(C(=O)Cn3nnc(-c4ccccc4C)n3)C(c3ccco3)C2)cc1 (stereo unspecified),inactive,–
CCCN(C)c1nccnc1OC1CCN(C(=O)c2ccn[nH]2)C1 (stereo unspecified),"inconclusive: 35.5 µM [inhibitor, partial curve, poor fit]",–
CC(=O)c1ccc(NCC(=O)N2N=C(c3ccc(C)o3)CC2c2ccco2)cc1 (stereo unspecified),inactive,–
COC(=O)c1ccc(COC(=O)c2cc(C(C)=O)c[nH]2)cc1,inactive,–
O=C(COc1ccc2c(=O)c(-c3ccccc3)coc2c1)N1CCN(c2ccccn2)CC1,inactive,–
Cc1cccc(OCC(=O)N[C@@H]2CN(c3ncccn3)C[C@H]2CO)c1,"inconclusive: 22.4 µM [inhibitor, partial curve, poor fit]",–
Cc1ccccc1C(=O)Nc1cccc(OCc2cc(=O)n3c4c(sc3n2)CCCC4)c1,"inconclusive: 15.8 µM [inhibitor, partial curve, poor fit]",–

Structure (SMILES),Potency,"activity change, negative = inhibition"
COc1ccc(NC(=O)Cn2cc(S(=O)(=O)N3CCC(C)CC3)c3ccccc3c2=O)cc1Cl,"inconclusive: 28.2 µM [inhibitor, partial curve, poor fit]",–
COc1ccc2c(c1)c1c(c(=O)n(-c3ccc(C)cc3)c(=O)n1CC(=O)c1ccc(Cl)cc1)n2C,"inconclusive: 7.94 µM [inhibitor, partial curve, poor fit]",–
CCCN1C(=O)[C@H]2CC[C@@H]1CN(C(=O)c1nc(-c3ccccc3)[nH]c1C)C2,"inconclusive: 31.6 µM [inhibitor, single point]",–
CC[C@H]1CN(C(=O)c2ccc(F)cc2)CC[C@H]1CC(=O)NC1CC1,inactive,–
CCn1c(CSc2n[nH]c(-c3ccccc3)n2)nc2cc(S(=O)(=O)N(C)C)ccc21,inactive,–
CN(C)CCNC(=O)c1nc2nc(-c3ccccc3)c(Cl)cc2n1C,active: 39.8 µM,–
N#Cc1ccc(CNC(=O)[C@@H]2Cc3nc[nH]c3CN2C(=O)CCC(=O)O)cc1,"inconclusive: 35.5 µM [inhibitor, single point]",–
Cc1c(C)c2ccc(OCC(=O)N3CCN(C(=O)C4COc5ccccc5O4)CC3)cc2oc1=O (stereo unspecified),"inconclusive: 20 µM [inhibitor, partial curve, poor fit]",–
CN(C)CCNc1oc(/C=C/c2cccs2)nc1C#N,"inconclusive: 28.2 µM [inhibitor, partial curve, poor fit]",–
COc1cc(F)ccc1-c1ccnc2nc(C3CCCO3)nn12 (stereo unspecified),active: 28.2 µM,–
NC(=O)c1ccc(CNc2cnc3ccccc3n2)cc1,"inconclusive: 31.6 µM [inhibitor, partial curve, poor fit]",–
CCc1cc(=O)oc2cc(OCC(=O)NCCCn3ccnc3)ccc12,"inconclusive: 12.6 µM [inhibitor, partial curve, poor fit]",–
C=CCn1c(SCC(=O)c2ccccc2)nc2c1c(=O)n(C)c(=O)n2C,inactive,–
CN1Cc2ccc(NCc3ccccc3)nc2C(C)(C(=O)NCCCn2ccnc2)C1 (stereo unspecified),"inconclusive: 14.1 µM [inhibitor, partial curve, poor fit]",–
CSc1nc(N)c2c(n1)NC1=C(C(=O)CC(C)(C)C1)C2c1ccccc1 (stereo unspecified),"inconclusive: 14.1 µM [inhibitor, partial curve, poor fit]",–
N#Cc1c(-c2ccccc2)cc(-c2ccccc2)nc1SCC(O)CS(=O)(=O)Cc1ccccc1 (stereo unspecified),"inconclusive: 28.2 µM [inhibitor, partial curve, poor fit]",–
O=C(NCc1ccco1)C1CC(c2ccccc2)CN(C(=O)c2ccoc2)C1 (stereo unspecified),"inconclusive: 25.1 µM [inhibitor, single point]",–
CCOC(=O)C(NC(=O)Cc1coc2c(C)c(C)ccc12)C(=O)OCC,inactive,–
C/C(=N\NC(=O)c1ccccc1)c1ccc2c3c(cccc13)CC2,"inconclusive: 25.1 µM [inhibitor, partial curve, poor fit]",–
CCC(C)NC(=O)COc1ccc2c(C)cc(=O)oc2c1 (stereo unspecified),"inconclusive: 22.4 µM [inhibitor, partial curve, poor fit]",–
COc1ccc(NS(=O)(=O)c2cc(C(=O)N3CCCCC3)cs2)cc1,inactive,–
Clc1ccc(/C=C/c2ncc[nH]2)c(Cl)c1,"inconclusive: 35.5 µM [inhibitor, partial curve, poor fit]",–
